Results taken from patent US10501552B2, “Multivalent molecules comprising DR5-binding domains” (MacroGenics, Inc., priority 2015, dated 2019).

B1: DR5 mAb 2 × DR5 mAb 1 Fc diabody: bispecific tetravalent E-coil/K-coil Fc diabody, wild-type IgG1 Fc; chains SEQ ID NO:122 and 124 (protein)
chain 1: DIVMTQSHKFMSTSVGDRVSITCKASQDVNTAVAWYQQKPGQSPKLLIYWASTRHTGVPDRFTGSGSGTDYTLTIKSVQAEDLTLYYCQQHYITPWTFGGGTKLEIKGGGSGGGGEVKFLESGGGLVQPGGSLKLSCVASGFDFSRYWMSWVRQAPGKGLEWIGEINPDSNTINYTPSLKDKFIISRDNAKNTLYLQMTKVRSEDTALYYCTRRAYYGNPAWFAYWGQGTLVTVSAASTKGEVAACEKEVAALEKEVAALEKEVAALEKL[sequence of human IgG1 Fc with C220S (EU numbers) omitted]
chain 2: DIVLTQSPASLAVSLGQRATISCRASKSVSSSGYSYMHWYQQKPGQPPKVLIFLSSNLDSGVPARFSGSGSGTDFTLNIHPVEDGDAATYYCQHSRDLPPTFGGGTKLEIKGGGSGGGGKVQLQQSGAELVKPGASVKLSCKASGYTFTEYILHWVKQKSGQGLEWIGWFYPGNNNIKYNEKFKDKATLTADKSSSTVYMELSRLTSEDSAVYFCARHEQGPGYFDYWGQGTTLTVSSASTKGKVAACKEKVAALKEKVAALKEKVAALKE
modifications: First Polypeptide Chain of an Exemplary DR5 mAb 2 x DR5 mAb 1 Fc diabody; Second Polypeptide Chain of an Exemplary DR5 mAb 2 x DR5 mAb 1 Fc diabody
B2: DR5 mAb 1 × DR5 mAb 2 Fc diabody: bispecific tetravalent E-coil/K-coil Fc diabody, wild-type IgG1 Fc; chains SEQ ID NO:116 and 118 (protein)
chain 1: DIVLTQSPASLAVSLGQRATISCRASKSVSSSGYSYMHWYQQKPGQPPKVLIFLSSNLDSGVPARFSGSGSGTDFTLNIHPVEDGDAATYYCQHSRDLPPTFGGGTKLEIKGGGSGGGGKVQLQQSGAELVKPGASVKLSCKASGYTFTEYILHWVKQKSGQGLEWIGWFYPGNNNIKYNEKFKDKATLTADKSSSTVYMELSRLTSEDSAVYFCARHEQGPGYFDYWGQGTTLTVSSASTKGEVAACEKEVAALEKEVAALEKEVAALEKL[sequence of human IgG1 Fc with C220S (EU numbers) omitted]
chain 2: DIVMTQSHKFMSTSVGDRVSITCKASQDVNTAVAWYQQKPGQSPKLLIYWASTRHTGVPDRFTGSGSGTDYTLTIKSVQAEDLTLYYCQQHYITPWTFGGGTKLEIKGGGSGGGGEVKFLESGGGLVQPGGSLKLSCVASGFDFSRYWMSWVRQAPGKGLEWIGEINPDSNTINYTPSLKDKFIISRDNAKNTLYLQMTKVRSEDTALYYCTRRAYYGNPAWFAYWGQGTLVTVSAASTKGKVAACKEKVAALKEKVAALKEKVAALKE
modifications: First Polypeptide Chain of an Exemplary DR5 mAb 1 x DR5 mAb 2 Fc diabody; Second Polypeptide Chain of an Exemplary DR5 mAb 1 x DR5 mAb 2 Fc diabody

Legend:
[1] = tested on: Calu3; assay: MTS cell proliferation assay; type: cell-based; conditions: Calu3 (Lung); no cross-linking antibody
Description: (§1) Cell lines obtained from ATCC were cultured under standard tissue culture conditions. Each cell line was plated at ˜2×10^4 cells/well (in 96-well plates), and incubated overnight in F12/DMEM media supplemented with 10% FBS. […] Cell viability was determined using Promega CellTiter 96® AQeous Non-Radioactive Cell Proliferation Assay (Cat # G5430) essentially as described in the manufacturer's instructions to assay the amount of soluble formazan produced by cellular reduction of the MTS, which is a measure of the number of viable cells in the culture. Briefly, MTS/PMS regent was added to the wells and the absorbance at 490 nm (referenced at […]) was read in a Molecular Devices ThermoMax microplate reader.
(§2) Similar studies were performed over a range of anti-DR5 mAb concentrations from ˜10^−3 nM to ˜10^2 nM. The data for COLO205 cells is provided in FIG. 13, and are representative of cell lines sensitive to the antibodies of the invention.
(§3) The cytotoxicity of tetravalent DR5-Binding Molecules of the present invention was investigated. […] His-tagged TRAIL (R&D systems) was used as a positive control.
(§4) Similar studies were performed over a range of anti-DR5 mAb concentrations from ˜10^−3 nM to ˜10^2 nM.

[2] = tested on: HPAFII; assay: MTS cell proliferation assay; type: cell-based; conditions: HPAFII (Pancreas); no cross-linking antibody
Description: as §1, §2, §3, §4

[3] = tested on: Hs700T; assay: MTS cell proliferation assay; type: cell-based; conditions: Hs700T (Pancreas); no cross-linking antibody
Description: as §1, §2, §3, §4

[4] = tested on: MCF7; assay: MTS cell proliferation assay; type: cell-based; conditions: MCF7 (Breast); no cross-linking antibody
Description: as §1, §2, §3, §4

[5] = tested on: PC3; assay: MTS cell proliferation assay; type: cell-based; conditions: PC3 (Prostate); no cross-linking antibody
Description: as §1, §2, §3, §4

[6] = tested on: SKOV3; assay: MTS cell proliferation assay; type: cell-based; conditions: SKOV3 (Ovary); no cross-linking antibody
Description: as §1, §2, §3, §4

[7] = tested on: A549; assay: MTS cell proliferation assay; type: cell-based, human; conditions: A549 (Lung); no cross-linking antibody
Description: as §1, §2, §3, §4

[8] = tested on: DU145; assay: MTS cell proliferation assay; type: cell-based, human; conditions: DU145 (Prostate); no cross-linking antibody
Description: as §1, §2, §3, §4

[9] = tested on: LNCap; assay: MTS cell proliferation assay; type: cell-based, human; conditions: LNCap (Prostate); no cross-linking antibody
Description: as §1, §2, §3, §4

[10] = tested on: SKBR3; assay: MTS cell proliferation assay; type: cell-based, human; conditions: SKBR3 (Breast); no cross-linking antibody
Description: as §1, §2, §3, §4

[11] = tested on: SKMES; assay: MTS cell proliferation assay; type: cell-based, human; conditions: SKMES (Lung); no cross-linking antibody
Description: as §1, §2, §3, §4

[12] = tested on: COLO205; assay: […]-GLO cell viability assay with vorinostat; type: cell-based; conditions: for Average % Ctrl: one day
Description: For the first study COLO205 cells were plated at 2×10^4 cells/well (in 96-well plates), and incubated overnight in F12/DMEM media supplemented with 10% FBS. […] Cell viability was determined using Promega […]-GLO® Luminescent Cell Viability Assay (Cat # G5430) essentially as described in the manufacturer's instructions to assay the amount of ATP present, which is a measure of the number of viable cells in the culture. Briefly, an […]-GLO® Reagent was added to the wells and mixed for two minutes to induce lysis and the luminescence was read in a in PerkinElmer EnVision multilabel plate reader.
Cell viability of cells treated with the test articles is normalized to the corresponding negative control (medium±vorinostat) which is set to 100% and reported in Table 12 as % of control for each test agent alone or % control for each test agent in combination with vorinostat. % of control values less than 100% indicate a reduction in viability and reflect the cytotoxicity of the test article alone or in combination with vorinostat.
The Net Gain (Average % Growth Inhibition)=% Medium Ctrl (10% FBS)−% Medium Ctrl (1/10 μM vorinostat), and represents increased cytotoxicity of the test article in combination with vorinostat over cells treated with vorinostat alone.

[13] = tested on: BT474; assay: […]-GLO cell viability assay with vorinostat; type: cell-based; conditions: BT474 (Breast); 1 μg/ml + 10 μM Vorinostat
[14] = tested on: MDA-MB-361; assay: […]-GLO cell viability assay with vorinostat; type: cell-based; conditions: MDA-MB-361 (Breast); 1 μg/ml + 10 μM Vorinostat
[15] = tested on: A549; assay: […]-GLO cell viability assay with vorinostat; type: cell-based, human; conditions: A549 (Lung); 1 μg/ml + 10 μM Vorinostat
[16] = tested on: ES2; assay: […]-GLO cell viability assay with vorinostat; type: cell-based; conditions: ES2 (Ovary); 1 μg/ml + 10 μM Vorinostat
[17] = tested on: 22RV1; assay: […]-GLO cell viability assay with vorinostat; type: cell-based; conditions: 22RV1 (Prostate); 1 μg/ml + 10 μM Vorinostat
[18] = tested on: LNCap; assay: […]-GLO cell viability assay with vorinostat; type: cell-based, human; conditions: LNCap (Prostate); 1 μg/ml + 10 μM Vorinostat
[19] = tested on: MDA-MB-175VII; assay: […]-GLO cell viability assay with vorinostat; type: cell-based; conditions: MDA-MB-175VII (Breast); 1 μg/ml + 1 μM Vorinostat
[20] = tested on: SKBR3; assay: […]-GLO cell viability assay with vorinostat; type: cell-based, human; conditions: SKBR3 (Breast); 1 μg/ml + 1 μM Vorinostat
[21] = tested on: NCI-N87; assay: […]-GLO cell viability assay with vorinostat; type: cell-based; conditions: NCI-N87 (Stomach); 1 μg/ml + 1 μM Vorinostat
[22] = tested on: AsPC1; assay: […]-GLO cell viability assay with vorinostat; type: cell-based; conditions: AsPC1 (Pancreas); 1 μg/ml + 1 μM Vorinostat
[23] = tested on: Hs700T; assay: […]-GLO cell viability assay with vorinostat; type: cell-based; conditions: Hs700T (Pancreas); 1 μg/ml + 1 μM Vorinostat
[24] = tested on: SKOV3; assay: […]-GLO cell viability assay with vorinostat; type: cell-based; conditions: SKOV3 (Ovary); 1 μg/ml + 1 μM Vorinostat
[25] = tested on: PC3; assay: […]-GLO cell viability assay with vorinostat; type: cell-based; conditions: PC3 (Prostate); 1 μg/ml + 1 μM Vorinostat
[26] = Vorinostat 0 μM, % Medium Ctrl (10% FBS), 10 ng/ml tetravalent molecule or 1 μg/ml DR5 mAb
[27] = Vorinostat 0.1 μM, normalized to medium + vorinostat
[28] = Vorinostat 1 μM, normalized to medium + vorinostat

Molecule | % Inhibition (Average) [1] | % Inhibition (Average) [2] | % Inhibition (Average) [3] | % Inhibition (Average) [4] | % Inhibition (Average) [5] | % Inhibition (Average) [6] | % Inhibition (Average) [7] | % Inhibition (Average) [8] | % Inhibition (Average) [9] | % Inhibition (Average) [10] | % Inhibition (Average) [11] | Average % Ctrl [12, 26] | Net Gain (Average % Growth Inhibition) ([12]; Vorinostat 0.1 μM) | Average % Ctrl [12, 27] | Net Gain (Average % Growth Inhibition) ([12]; Vorinostat 1 μM) | Average % Ctrl [12, 28] | Net Gain (Average % Growth Inhibition) [13] | Net Gain (Average % Growth Inhibition) [14] | Net Gain (Average % Growth Inhibition) [15] | Net Gain (Average % Growth Inhibition) [16] | further results
B1 | 18.01% | 10.1% | 13.38% | 6.27% | 10.79% | 9.95% | 2.8% | 12.34% | 12.71% | 8.47% | 68.97% | 84.1% | 13% | 70.7% | 35% | 48.9% | 64.18% | 80.65% | 34.95% | 89.61% | Net Gain (Average % Growth Inhibition) [17]: 6.32%; Net Gain (Average % Growth Inhibition) [18]: 16.63%; Net Gain (Average % Growth Inhibition) [19]: 10.63%; Net Gain (Average % Growth Inhibition) [20]: 37.04%; Net Gain (Average % Growth Inhibition) [21]: 25.28%; Net Gain (Average % Growth Inhibition) [22]: 12.91%; Net Gain (Average % Growth Inhibition) [23]: 43.04%; Net Gain (Average % Growth Inhibition) [24]: 55.97%; Net Gain (Average % Growth Inhibition) [25]: 10.22%
B2 | 15.18% | 10.05% | 17.89% | 6.03% | 10.54% | 13.02% | 2.63% | 12.14% | 11.82% | 13.07% | 75.6% | 64.4% | 12% | 52.6% | 20% | 44.8% | 75.26% | 83.21% | 36.34% | 87.60% | Net Gain (Average % Growth Inhibition) [17]: 5.36%; Net Gain (Average % Growth Inhibition) [18]: 20.41%; Net Gain (Average % Growth Inhibition) [19]: 10.84%; Net Gain (Average % Growth Inhibition) [20]: 38.50%; Net Gain (Average % Growth Inhibition) [21]: 31.47%; Net Gain (Average % Growth Inhibition) [22]: 14.27%; Net Gain (Average % Growth Inhibition) [23]: 46.91%; Net Gain (Average % Growth Inhibition) [24]: 55.63%; Net Gain (Average % Growth Inhibition) [25]: 11.32%
